From PMC12136788
Some of the results follow.

B1: chr12:48362563:48362564:+_ENSG00000134291_ENST00000256686|hu_hu|hu_hu_hu_mus_False|48_88 (ssRNA)
RNA: GGGAGUUCUACAGUCCGACGAUCUCCGUCAAGCCCUUCGAUAGACCCAUAGACUCUAAACUGUAAUCACUUUGUAUGGGGAAGGAAAAAAAAAGCCAAAAACUUUCCAAAAAGCGGGGGUGGGGUGAGGCGGGAGGGGGAGGUCAACAGAGGAUUGAGCAUCA
B2: chr3:10015032:10015033:+_ENSMUSG00000027533_ENSMUST00000029046|mus_mus|mus_mus_mus_hu_True|8_98 (ssRNA)
RNA: GGGAGUUCUACAGUCCGACGAUCGUUUUUACCAUCACACGUAAUGAUACAAUCUGGCUUGGCCAUUGCGCCCAUUUUUCGCAAAGCUAUUCCCACUCCUAGCUCCUUCAUGUAUUCAUCAAAGCCUUGGCUUUCCACCAGGCGCAACAGAGGAUUGAGCAUCA
B3: chrX:114877694:114877695:+_ENSG00000102024_ENST00000355899|hu_hu|motif|central (ssRNA)
RNA: GGGAGUUCUACAGUCCGACGAUCGUUGAGUUUGGGGUUUCCACUGACAACAUCAGCAGGGGUAACAAACUGUCUGCAACCGGAUUUAUCUGCUUGUUGAAGCAUACUCUCAGCUCUCUUCAAAUCAUCUGUUUCAUUGAAACCCAACAGAGGAUUGAGCAUCA
B4: chr2:198351390:198351391:-_ENSG00000144381_ENST00000345042|hu_hu|hu_hu_hu_mus_False|78_88 (ssRNA)
RNA: GGGAGUUCUACAGUCCGACGAUCUCAUUCCCACCCUCCACAGAAAGGCUGCUUAACUUCUCAUCUGUGGUGACACAGCGCUACAGUCCUGAUGCUCACAGAACAGUAGAGAUGCCUCAGUGAUUUAAGUUGAAAGCAGGACACCAACAGAGGAUUGAGCAUCA
B5: chr17:45747064:45747065:+_ENSG00000108424_ENST00000290158|hu_hu|hu_hu_hu_mus_True|58_108 (ssRNA)
RNA: GGGAGUUCUACAGUCCGACGAUCGCCUACAGUCCAUGCUGUUGUGUCUCGAACAACUACACUGGGGUCUUUCAUUAAUUCUAUUAGGGUGGGCAUAGCCUGUAUGACUAAUGGUUUCAGUUGAUUAGGCUCUGGUCCUUCCAACAACAGAGGAUUGAGCAUCA
B6: chr5:153406784:153406785:-_ENSG00000055147_ENST00000520667|hu_mus|FALSE|FALSE (ssRNA)
RNA: GGGAGUUCUACAGUCCGACGAUCUUUCACCUUUAUCUCACUUUCUCGGGAAAGCAUCUCCAGAGCUUCUAGAUGUGAAAGGCCUUGAAACUCAUCAAAGAGUAGCCCAUAAUGAGUUUUCUUGUCUGUUUCCAUGGUUACUUCCAACAGAGGAUUGAGCAUCA
B7: chr1:130485734:130485735:-_ENSMUSG00000045382_ENSMUST00000052172|mus_mus|FALSE|FALSE (ssRNA)
RNA: GGGAGUUCUACAGUCCGACGAUCGAUGAAGGAGUCGAUGCUGAUCCCCACAUAAUAUGGCAGCCAGCAGGCAAAGAAAGCUAGGAUGAGGAUGACUGUCGUCUUGAGGGCCUUGCGCUUCUGGUGGCCCUUGGAGUGUGACAGCAACAGAGGAUUGAGCAUCA
B8: chr6:32537486:32537487:-_ENSMUSG00000029765_ENSMUST00000115096|mus_mus|FALSE|FALSE (ssRNA)
RNA: GGGAGUUCUACAGUCCGACGAUCCCCAGCCCCGAACGCAAAUACUCCACCGAGGCACGGGGAAGCCACGAGCAGCAGAGAAAAACGGAGGGGGCCAAAUCAGAGCCUGCCGGGCUUGACAGCUCCUCUUGCAGCGUCCAAGGUCAACAGAGGAUUGAGCAUCA
B9: chr3:150285740:150285741:+_ENSG00000144895_ENST00000460851|hu_hu|FALSE|FALSE (ssRNA)
RNA: GGGAGUUCUACAGUCCGACGAUCAGCUUUUUUAUUCCACAGCAUUGUAACUUUAUCUGCCUUAAAGAAACUUUUAUUAGCUAAAGCUGCAUGAGGUCCAGCAAAGUUGGGGUACUGAUAUAAUCUAACAAAUGAAGGUGCACCCAACAGAGGAUUGAGCAUCA
B10: chr1:29069144:29069145:+_ENSG00000198492_ENST00000541996|perfect_dup|FALSE|FALSE (ssRNA)
RNA: GGGAGUUCUACAGUCCGACGAUCUGAGAAGUCAAUCCCACUGGGAAAGAAAUUAAAACCAUGCUGACCAAGAAAUGGAGUGCUACCUAGGGCUCCUGGUUGCCCAAACAUUGCAUCUGGUAGGAAGUGGGGCUCUCCGUUGCUCAACAGAGGAUUGAGCAUCA
B11: chr6:35489678:35489679:-_ENSMUSG00000029840_ENSMUST00000031866|mus_mus|FALSE|FALSE (ssRNA)
RNA: GGGAGUUCUACAGUCCGACGAUCGUGGGCCGGCGGGCCGGGCAGGAGCGGCGAUUAGGCCCGACGAGGGGACACGAGAAAGCGACGCGCCUCAGGCCGCUGAGCGGGCGAGACUGCGGGUCGCGGCUACGGUUCGGGCGGGAGCAACAGAGGAUUGAGCAUCA
B12: chr3:185639903:185639904:-_ENSG00000136527_ENST00000456380|hu_mus|FALSE|FALSE (ssRNA)
RNA: GGGAGUUCUACAGUCCGACGAUCUGUUAUAGAGAAAUCGACUCUAAUUCGACGCCCAUCAAGCUCCAUUCCAUUGGCACGUUCUUUAGCUUCCUUGGCAUCGUCUACAUUUUCAAAAUAUACAAAGGCAAAUCCUCUUGAACGCAACAGAGGAUUGAGCAUCA
B13: chr7:99638656:99638657:+_ENSG00000106261_ENST00000324306|hu_hu|FALSE|FALSE (ssRNA)
RNA: GGGAGUUCUACAGUCCGACGAUCAGCCCUCUAUAUAGAUUUAGGCUUAUGCUGACCUCGUUGUAAAAUCUGUAUUUAACUAAAAGUUAAUAAAAAUACAUAUGUUCAUUUUAAAAUAAUUACUGAUUUUGCUUGGCUAUCCCACAACAGAGGAUUGAGCAUCA
B14: chr4:107938938:107938939:-_ENSMUSG00000034636_ENSMUST00000043616|mus_hu|FALSE|FALSE (ssRNA)
RNA: GGGAGUUCUACAGUCCGACGAUCCCGGCUGAAGCAGCGCUCGUAAGGAUCCUCGAGGGAGAGAGUUAAUGAAUUCAGCACCAGGCACUGGAGAUUCUGCUGGAUCCAUUUGUUACUGCCAAGCCCACUGAUAAUGUCUGUAAUCAACAGAGGAUUGAGCAUCA

biological target: T1, UNK ZnF1-3 (human, UniProt Q9C0B0 31-174); test: nsRBNS (natural sequence RNA bind-n-seq); RBNS binding buffer (assumed for nsRBNS): 25 mM Tris pH 7.5, 150 mM KCl, 3 mM MgCl2, 0.01% Triton X-100, 500 ug/ml BSA, 20 U/ml SUPERase-In, 4 C; UNK is unkempt and MSI1 is Musashi-1; names of the RNAs are library labels; protein concentration not given here; high values mean tight binding
T1 sequence: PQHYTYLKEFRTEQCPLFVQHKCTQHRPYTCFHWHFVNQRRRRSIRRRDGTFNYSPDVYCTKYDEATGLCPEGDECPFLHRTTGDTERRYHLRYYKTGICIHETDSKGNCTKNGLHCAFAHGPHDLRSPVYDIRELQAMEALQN

Binder	binding signal [enrichment R]
B1	2.48
B2	0.772
B3	0.849
B4	1.39
B5	0.768
B6	0.848
B7	0.997
B8	1.16
B9	1.73
B10	1.18
B11	1.32
B12	0.503
B13	2.18
B14	1.11
